The source of these data is the supplement of paper PMC9446081.

Hit rate of the full screen: of about 39,000 compounds, about 220 (0.56%) showed activity. This is one part of the list.
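Further: static incubation at 37 °C against the wild-type strain, values averaged over two biological replicates.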

The experiment deals with Escherichia coli K-12 BW25113. Kind of experiment: relative growth (OD600 normalised to plate interquartile mean) (fraction); higher = less growth inhibition, active = 0.2 or less. As to conditions: 50 µM; LB; incubation time: overnight (16-24 h).
For `Cc1ccc(S(=O)(=O)N(C)C[C@@H]2Oc3c(NC(=O)c4ccncc4)cccc3C(=O)N([C@@H](C)CO)C[C@@H]2C)cc1`, the relative growth was inactive: 1. The same measure for `CC(C)CC#Cc1ccc2c(c1)O[C@@H](CN(C)C(=O)c1cnccn1)[C@@H](C)CN([C@H](C)CO)S2(=O)=O`: inactive: 0.965. The result for `C[C@@H]1CN([C@H](C)CO)C(=O)Cc2cc(NC(=O)c3ccncc3)ccc2O[C@@H]1CN(C)S(=O)(=O)c1ccc(F)cc1` reads inactive: 0.999; that for `COc1ccc([C@@H]([C@H](Cc2ccccc2)OC(C)=O)N2C[C@@H]3C(=NO[C@H]3[C@@H](OC(C)=O)c3ccccc3)[C@@H]2Cc2ccccc2)cc1`, inactive: 1.02; that for `CNC(=O)c1cccc(NC(=S)NC)c1`, inactive: 1. The same measure for `C[C@@H]1CCCCO[C@@H](CN(C)Cc2ccccc2)[C@@H](C)CN([C@@H](C)CO)C(=O)c2cc(NC(=O)C3CCCCC3)ccc2O1`: inactive: 1.01.

On to `Cc1ccc(S(=O)(=O)N(C)C[C@H]2OCCCC[C@H](C)Oc3ccc(NC(=O)Nc4ccc(F)cc4)cc3C(=O)N([C@H](C)CO)C[C@H]2C)cc1`, for which the relative growth was inactive: 1.01. The result for `C[C@@H]1CN([C@H](C)CO)C(=O)CCCn2cc(nn2)CO[C@@H]1CN(C)C(=O)Nc1cccc2ccccc12` reads inactive: 1.01. On to `NCC[C@H]1CC[C@@H](NC(=O)NC2CCCCC2)[C@H](CO)O1`, for which the relative growth is inactive: 0.983.

On to `COc1ccc(S(=O)(=O)Nc2cccc3c2O[C@H](CN(C)Cc2ccc(Oc4ccccc4)cc2)[C@@H](C)CN([C@H](C)CO)C3=O)cc1`, for which the relative growth is inactive: 1.04. The result for `Cc1noc(C)c1NC(=O)N(C)C[C@H]1OCCCC[C@H](C)Oc2ccc(NC(=O)C3CCCCC3)cc2C(=O)N([C@H](C)CO)C[C@H]1C` reads inactive: 1. The result for `CCCN(C)C[C@@H]1OCCCC[C@@H](C)Oc2ccc(NC(=O)Nc3ccc(OC)cc3)cc2C(=O)N([C@H](C)CO)C[C@@H]1C` reads inactive: 0.992; that for `CCS(=O)(=O)N1CCc2ccc(N)cc2C1`, inactive: 0.973; that for `C[C@@H]1CN([C@H](C)CO)C(=O)c2cc(NS(=O)(=O)c3ccc(Cl)cc3)ccc2O[C@@H](C)CCCCO[C@@H]1CN(C)S(=O)(=O)c1cccs1`, inactive: 1.04.

On to `C[C@@H]1CN([C@@H](C)CO)C(=O)c2cc(NC(=O)Nc3ccc(C(F)(F)F)cc3)ccc2O[C@@H]1CN(C)Cc1ccncc1`, for which the relative growth was inactive: 0.981. The result for `COc1ccc(NC(=O)Nc2ccc3c(c2)C(=O)N([C@@H](C)CO)C[C@@H](C)[C@@H](CN(C)S(=O)(=O)c2cccs2)OCCCC[C@H](C)O3)cc1` reads inactive: 1.02; that for `NC(=O)NC1NC(=O)NC1=O` (stereo not drawn), inactive: 0.986. `C[C@@H]1CCCCO[C@H](CN(C)Cc2ccc(C(F)(F)F)cc2)[C@H](C)CN([C@@H](C)CO)C(=O)c2cc(NS(C)(=O)=O)ccc2O1`: the relative growth is inactive: 0.987. The result for `O=C1c2ccccc2[C@](Cc2ccccc2I)(C(=O)NCC(F)(F)F)[C@H](c2ccc(CO)cc2)N1C1CCCCC1` reads inactive: 1.02; that for `Cc1cc2n(n1)CCN(C(=O)[C@H]1CC[C@@H](N)C1)C2`, inactive: 0.935; that for `C[C@H](CO)N1C[C@H](C)[C@H](CN(C)S(=O)(=O)c2ccc(F)cc2)Oc2c(NS(C)(=O)=O)cccc2C1=O`, inactive: 0.989. The same measure for `COc1cccc(S(=O)(=O)N(C)C[C@@H]2Oc3cc(C#CCC(C)C)ccc3S(=O)(=O)N([C@H](C)CO)C[C@H]2C)c1`: inactive: 1.01. The result for `Cc1ccc(S(=O)(=O)N(C)C[C@H]2Oc3ccc(NC(=O)CCN4CCOCC4)cc3C(=O)N([C@H](C)CO)C[C@H]2C)cc1` reads inactive: 1.04; that for `C[C@@H]1CCCCO[C@@H](CN(C)C(=O)NC2CCCCC2)[C@@H](C)CN([C@@H](C)CO)C(=O)c2cc(NS(=O)(=O)c3ccc(Cl)cc3)ccc2O1`, inactive: 0.884; that for `C[C@@H]1CCCCO[C@H](CN(C)C(=O)CCC(F)(F)F)[C@H](C)CN([C@H](C)CO)C(=O)c2cc(NS(=O)(=O)c3ccc(Cl)cc3)ccc2O1`, inactive: 1.03.

In the case of `CCNC(=O)[C@@H]1CCCN1C(=O)[C@H](CCCN=C(N)N)NC(=O)[C@H](CC(C)C)NC(=O)[C@@H](Cc1c[nH]c2ccccc12)NC(=O)[C@H](Cc1ccc(O)cc1)NC(=O)[C@H](CO)NC(=O)[C@H](Cc1c[nH]c2ccccc12)NC(=O)[C@H](Cc1c[nH]cn1)NC(=O)[C@@H]1CCC(=O)N1`, the relative growth is inactive: 1.02. The same measure for `C[C@@H]1CCCCO[C@H](CN(C)S(=O)(=O)c2ccccc2)[C@H](C)CN([C@H](C)CO)C(=O)c2cc(NC(=O)Nc3cccc4ccccc34)ccc2O1`: inactive: 1.04. The same measure for `CCCCC(=O)OC1(C(=O)CO)C(C)CC2C3CCC4=CC(=O)C=CC4(C)C3(F)C(O)CC21C` (stereo not drawn): inactive: 0.942. The same measure for `C[C@@H]1CN([C@@H](C)CO)S(=O)(=O)c2ccc(C#Cc3ccccc3)cc2O[C@H]1CN(C)S(=O)(=O)c1ccccc1F`: inactive: 0.946; for `CC(C)=CC[C@H]1O[C@]2(O)[C@@H]([C@H]3CC[C@@H]4[C@@]5(C)CC[C@H](O[C@@H]6O[C@H](CO[C@@H]7O[C@@H](C)[C@H](O)[C@@H](O)[C@H]7O)[C@@H](O)[C@H](O)[C@@H]6O)C(C)(C)[C@@H]5CC[C@@]4(C)[C@]3(C)[C@H]2O)[C@@]1(C)O[C@@H]1O[C@@H](C)[C@H](O)[C@@H](O)[C@H]1O`: inactive: 0.997; for `CO[C@H]1CN(C)C(=O)c2cc(NC(=O)Nc3ccccc3F)ccc2OC[C@@H](C)N(CCC(F)(F)F)C[C@@H]1C`: inactive: 1.03. On to `c1ccc(CNC2CCCCC2)nc1`, for which the relative growth is inactive: 1.02. The same measure for `C[C@H]1CN([C@@H](C)CO)C(=O)c2cccc(NC(=O)c3cnccn3)c2O[C@@H]1CN(C)Cc1ccc(C(=O)O)cc1`: inactive: 0.964; for `C[C@H](CO)N1C[C@H](C)[C@H](CN(C)S(=O)(=O)c2ccc(F)cc2)OCCCC[C@H](C)Oc2ccc(NC(=O)c3ccccc3)cc2C1=O`: inactive: 1.01. The result for `CCCCCCCCCCCCCCCC(=O)C(F)(F)F` reads inactive: 0.965. The result for `Cc1ccc(-c2cnc3c(c2)C(=O)N([C@H](C)CO)C[C@@H](C)[C@H](CN(C)C(=O)Cc2cccnc2)O3)cc1` reads inactive: 1; that for `CC(C)NC(=O)N(C)C[C@@H]1OCCCC[C@H](C)Oc2ccc(NC(=O)Nc3ccc(F)cc3)cc2C(=O)N([C@@H](C)CO)C[C@H]1C`, inactive: 1.02. `Cn1c(=O)c2c(ncn2CC(=O)N2CCN(c3ccccc3F)CC2)n(C)c1=O`: the relative growth was inactive: 0.99. The result for `O=C1CCc2ccc(OCCCCN3CCN(c4cccc(Cl)c4Cl)CC3)cc2N1` reads inactive: 1.01; that for `C[C@@H]1CN([C@@H](C)CO)C(=O)Cc2cc(NC(=O)C3CC3)ccc2O[C@H]1CN(C)S(=O)(=O)c1ccc(Cl)cc1`, inactive: 0.967; that for `Cc1ccc(S(=O)(=O)N(C)C[C@H]2Oc3c(NS(=O)(=O)c4cccs4)cccc3C(=O)N([C@@H](C)CO)C[C@@H]2C)cc1`, inactive: 0.893.

For the molecule `Cc1ccc(S(=O)(=O)N(C)C[C@@H]2Oc3ccc(NC(=O)Nc4ccc(C(F)(F)F)cc4)cc3C(=O)N([C@@H](C)CO)C[C@H]2C)cc1`, the relative growth is inactive: 0.993.

Consider `C[C@H]1CN([C@@H](C)CO)C(=O)c2cccc(NC(=O)C3CCOCC3)c2O[C@H]1CN(C)C(=O)NC1CCCCC1`, for which the relative growth was inactive: 1.02. For `C[C@@H]1CN([C@@H](C)CO)C(=O)Cc2cc(NC(=O)Cn3cnnn3)ccc2O[C@H]1CN(C)Cc1ccc(-c2ccccc2)cc1`, the relative growth was inactive: 0.984. The result for `C[C@@H]1CN([C@@H](C)CO)C(=O)c2cc(NC(=O)Cn3cnnn3)ccc2O[C@H]1CN(C)Cc1ccncc1` reads inactive: 1.01; that for `COc1ccc(NC(=O)N(C)C[C@@H]2Oc3ccc(NC(=O)CCN4CCOCC4)cc3C(=O)N([C@H](C)CO)C[C@H]2C)cc1`, inactive: 0.993. The same measure for `C[C@H]1CN([C@@H](C)CO)C(=O)c2cc(NC(=O)Nc3ccccc3)ccc2O[C@H]1CN(C)C(=O)Nc1cccc2ccccc12`: inactive: 0.954. The result for `N#CC1CC2CC2N1C(=O)C(N)C12CC3CC(CC(O)(C3)C1)C2` (stereo not drawn) reads inactive: 1.06. On to `C[C@@H]1CN([C@H](C)CO)C(=O)c2cc(NC(=O)Nc3ccc(F)cc3)ccc2O[C@@H](C)CCCCO[C@H]1CN(C)S(=O)(=O)c1cccs1`, for which the relative growth is inactive: 1.1. The same measure for `CCC=CCC=CCC=CCC=CCC=CCCCC(=O)OCC` [OMEGA-3-ACID ESTERS (EPA shown)]: inactive: 0.902; for `C[C@@H]1CN([C@@H](C)CO)C(=O)c2cc(C#Cc3ccccc3F)cnc2O[C@@H]1CN(C)S(=O)(=O)c1ccccc1F`: inactive: 1.04; for `Nc1[nH]ncc1-c1cc(Cl)ccc1Oc1cc(F)c(S(=O)(=O)Nc2cscn2)cc1Cl`: inactive: 0.983.

For `O=C(C[C@H]1CC[C@H]2[C@@H](COC[C@@H](O)CN2S(=O)(=O)c2cccc(F)c2)O1)NCCCN1CCOCC1`, the relative growth is inactive: 0.988. The same measure for `CNC[C@@H]1OCCCC[C@@H](C)Oc2ccc(NS(=O)(=O)c3c(C)noc3C)cc2C(=O)N([C@H](C)CO)C[C@@H]1C`: inactive: 0.977. The same measure for `C[C@@H]1CN([C@H](C)CO)C(=O)c2cccc(NC(=O)C3CCCCC3)c2O[C@H]1CN(C)Cc1ccc(-c2ccccc2)cc1`: inactive: 1.02.

As for `COc1cccc(NC(=O)N[C@H]2C=C[C@H](CC(=O)N3CCN(C)CC3)O[C@@H]2CO)c1`, the relative growth is inactive: 1.03. The same measure for `C[C@H]1CN([C@@H](C)CO)C(=O)Cc2cc(NC(=O)c3ccncc3)ccc2O[C@@H]1CN(C)C(=O)NC1CCCCC1`: inactive: 1.01; for `C[C@@H]1CCCCO[C@@H](CN(C)C(=O)Nc2cccc3ccccc23)[C@H](C)CN([C@H](C)CO)C(=O)c2cc(NC(=O)Nc3ccc(C(F)(F)F)cc3)ccc2O1`: inactive: 1.01.
